Experimental data reported in the supplement of paper PMC4466236.
Whole data set: some 33,000 sequences, median “E-score (dimensionless, -0.5 to 0.5)” near -0.058, cut for the highest 2% near 0.35. The list shows a part of the results.

The sequences below were run on MvaT (assay: PBM 8-mer E-score (mean of HK and ME arrays) (E-score (dimensionless, -0.5 to 0.5)); higher = stronger relative binding preference; most listed sequences are background and not binding sites).
In short: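 Full-length P. aeruginosa MvaT, with glutathione S-transferase fused to its N-terminus (cloned into pTH6838 by isothermal assembly), was tested by protein binding microarray using a previously described protocol. Two universal double-stranded 60-mer arrays (ME and HK) were used, each with a constant 25-mer primer region and a variable 35-mer region covering all 8-mers. The rank-based 8-mer E-score (-0.5 to 0.5) is the mean of the two arrays, parsed with a custom Python script.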

Sequence	PBM 8-mer E-score
ACGTCCAA	-0.142
GTTGGTAA	0.093
GAGGCAAC	-0.183
ACGATTCG	-0.0701
GGCTTAAC	-0.0456
ATGAGCGG	-0.204
CGTGGAGA	-0.112
GATCTCAC	-0.0393
TCTCGTCA	-0.0921
ATCTATGC	-0.115
CCGACTAA	-0.0102
AAGATCAA	0.22
GACACTAA	0.292
CTGCATGC	-0.0882
AGGGTCTC	-0.351
CTCCGCGC	-0.207
AATAGCCA	-0.00268
GTTGCAAA	0.129
AATTAATC	0.366
AGTGCCTC	-0.204
AAACGCAC	-0.11
GAGAACTC	-0.301
AACAGCCC	-0.264
ATCGTACG	-0.0757
CGCGATAG	-0.182

Sequence	PBM 8-mer E-score
AGATCCAC	-0.0302
AATGTGAC	0.0501
GAGCGGAA	-0.165
CACGAGGG	-0.271
AGGACTAA	-0.0184
AAAGTCAT	0.0922
AGCCATTG	-0.029
AGCAAGGA	-0.0923
ACAGGTAG	-0.127
CACCCGTC	-0.177
CAAGTGGG	-0.0905
AAACGCGC	0.104
CGTGTGCA	-0.0742
AACAACAA	0.337
CAACGGCC	-0.19
AAGTGTAA	0.271
ACTCACTG	-0.0896
ATCTGCTC	-0.146
AAACACAT	0.16
AGGGCCCT	-0.239
TACTGCTA	-0.0808
AAATGACT	0.114
GCAGGTTA	-0.0406
ATCAGACG	-0.0188
ACTGCGGG	-0.0545

Sequence	PBM 8-mer E-score
CCCAATAA	0.14
ACGAGGGG	-0.273
GCGTTGAC	-0.0454
TGGAGCAA	-0.161
AGAATAGC	-0.0532
ATCCTCGG	-0.28
AGTCGTAC	-0.107
AGCTTACG	-0.217
GAGACAGC	-0.199
CCCACCTC	-0.162
GACCCTCA	-0.25
GTATAAGA	0.278
AATGCTGA	-0.0342
GCCGCTGA	-0.231
TGCCCGCA	-0.214
CGAAGTCC	-0.166
ATATACGC	0.291
TCCACAGA	-0.0394
GAACTCCA	-0.136
CGAACTGA	-0.0428
CGGAGACG	-0.19
CGCCACTA	0.0411
ATCGTGCG	0.00859
CGCCTAAG	-0.113
CCAAGTCG	-0.149

Sequence	PBM 8-mer E-score
AATTATGA	0.317
GCAGATAA	0.253
TCGACCCA	-0.167
ATGCATGC	-0.162
AACGGAAC	-0.066
AGCAATAA	0.174
GACTTGCA	-0.075
AGGCAAAT	0.156
AAAAACAG	0.16
ATTCAAAT	0.221
CTCGCTAA	0.00144
AGATCGCT	-0.111
GAGCGTTA	-0.0123
ATTGGCAC	0.11
CTACGGAC	-0.187
GATACGGA	-0.0413
TAAGATCA	0.126
GCAAGCCA	-0.218
GAATATGC	0.119
AGTTGTAT	0.337
ATTACGGG	0.108
ACCCCGCA	-0.305
CCTGTTGA	-0.0613
AGAGTACA	0.0581
AGACACCA	-0.0804

Sequence	PBM 8-mer E-score
GAGCTATA	0.0681
AGTTATCA	0.242
CGCCTCCG	-0.283
ATTCTCTG	0.0817
ACCCGAGC	-0.199
TGTATCAA	0.186
AGAACTAT	0.236
GGTGTCAC	-0.232
ATACCGGG	0.0584
CTACTGAC	-0.0554
AGTGCTGG	0.0396
GCCAGACA	-0.239
CGGGAAGA	-0.216
ATGTTATC	0.308
ACAAACTG	0.0992
AGGCGAGG	-0.263
ATGGGGAC	-0.108
ACCTCTCA	-0.199
CTACTAAC	0.165
GCCGCCGC	-0.306
ATGCCGAC	-0.143
ACTACCCG	-0.121
CTCATCGA	-0.0915
AAAGCAGC	-0.00509
AACGCCAC	-0.126

Sequence	PBM 8-mer E-score
CATGATTA	0.228
CAAAGACG	-0.0962
ACGAGTTC	-0.00078
CTACCTTC	-0.249
CAGCAATG	-0.191
AGACGGTG	-0.11
CAAGACAG	-0.0393
GGCCAACA	-0.00591
ACACAGAT	0.102
CCCAGCGA	-0.141
CCACTAGC	-0.28
AATTCATG	0.172
CCACAAGG	-0.331
GCGGATCC	-0.275
AGGTGAAA	0.0211
ACTCACAA	-0.0191
CAATGCCC	-0.251
CACCGATC	-0.0584
GCGACGAC	-0.211
AGAGTGGA	0.0118
GAACGCGC	0.0569
ACCACAAT	0.0475
CCATAGAG	-0.136
GCCGTTCA	-0.0858
GAGACCTA	-0.287

Sequence	PBM 8-mer E-score
GGAATAGA	0.0718
CAGAGAAG	0.0252
CGACCGAA	0.0227
GAAGTTGA	0.0448
AAGGGTAT	-0.0285
AGAGTGCG	-0.0882
AGATCTAA	0.159
GCCCGTAA	-0.0524
GTTATTTA	0.395
AGCTTAGC	-0.113
AAAGCTGA	-0.0551
AGGTTTCC	-0.267
CAATCGAC	0.0172
ACGAGAGT	-0.216
AGCGTTAG	-0.134
CCCTTAGG	-0.298
GTGAAAAA	0.0748
AGAGGAAC	-0.217
CTCCTCCA	-0.32
ATGAATAG	0.131
CAGGCGTC	-0.261
ACTGACAG	-0.118
